In article PMC4336329 (PLoS ONE, 2015):
Hit rate of the full screen: of about 310,000 compounds, about 2,200 (0.71%) showed an effect of 50% or more. Effects have a minus sign here. This is one part of the list.

Molecular target: human ether-à-go-go-related gene (hERG) potassium channel (human, UniProt Q12809)
Test: primary screen, population patch clamp on CHO cells stably expressing hERG

Sequence of human ether-à-go-go-related gene (hERG) potassium channel (Q12809 whole entry, looked up): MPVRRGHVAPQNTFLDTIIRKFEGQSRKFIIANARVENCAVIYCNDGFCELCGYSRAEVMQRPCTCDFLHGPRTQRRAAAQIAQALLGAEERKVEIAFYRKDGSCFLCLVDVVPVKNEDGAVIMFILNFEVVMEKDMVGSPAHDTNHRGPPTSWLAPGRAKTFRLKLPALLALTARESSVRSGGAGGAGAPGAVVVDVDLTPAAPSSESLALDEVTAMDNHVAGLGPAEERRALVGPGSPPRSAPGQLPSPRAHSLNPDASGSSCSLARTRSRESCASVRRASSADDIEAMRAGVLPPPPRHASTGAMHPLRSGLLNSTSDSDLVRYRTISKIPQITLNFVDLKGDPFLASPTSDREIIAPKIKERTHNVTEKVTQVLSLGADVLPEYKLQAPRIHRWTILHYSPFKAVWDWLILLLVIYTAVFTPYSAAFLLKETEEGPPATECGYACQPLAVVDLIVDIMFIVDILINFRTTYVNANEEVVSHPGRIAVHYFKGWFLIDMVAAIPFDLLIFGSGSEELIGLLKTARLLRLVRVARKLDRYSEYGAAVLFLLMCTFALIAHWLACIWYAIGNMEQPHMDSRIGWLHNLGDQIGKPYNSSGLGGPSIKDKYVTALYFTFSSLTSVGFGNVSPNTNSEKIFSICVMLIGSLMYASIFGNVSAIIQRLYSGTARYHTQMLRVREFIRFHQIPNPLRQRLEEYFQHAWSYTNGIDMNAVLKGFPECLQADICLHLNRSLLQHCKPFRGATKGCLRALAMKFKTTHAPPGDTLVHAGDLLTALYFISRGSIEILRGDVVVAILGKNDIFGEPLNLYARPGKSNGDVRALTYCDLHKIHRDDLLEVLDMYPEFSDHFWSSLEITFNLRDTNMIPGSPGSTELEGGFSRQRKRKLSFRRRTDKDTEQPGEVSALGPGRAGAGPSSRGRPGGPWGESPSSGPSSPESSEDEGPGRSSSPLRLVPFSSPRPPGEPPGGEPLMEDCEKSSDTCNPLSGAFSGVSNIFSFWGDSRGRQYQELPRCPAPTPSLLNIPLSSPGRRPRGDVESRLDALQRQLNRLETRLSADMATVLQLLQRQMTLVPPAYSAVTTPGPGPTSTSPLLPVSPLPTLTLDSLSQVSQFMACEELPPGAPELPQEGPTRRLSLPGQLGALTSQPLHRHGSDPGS

Row | Compound | hERG current change (%, negative = inhibition) at 1uM [%]
1 | CCn1c(=O)c2cc(C(=O)NCCOC)sc2c2ccccc21 | 10.9
2 | COC(=O)c1[nH]c2c(c1C)C(=O)CC(c1ccc(OC)c(OC)c1)C2 (stereo not drawn) | 8.15
3 | COc1cccc(CNc2nc3nc4c(c(=O)n3[nH]2)CCC4)c1 | 0.788
4 | COc1ccc(C(C)(C)NC(=O)C2CCC(=O)N(C3CCCC3)C2)cc1OC (stereo not drawn) | 8.43
5 | COC(=O)CNC(=O)c1ccccc1C | 12.3
6 | CSCCC(NC(=O)c1ccco1)C(=O)OC(C)C(=O)NC(=O)NC1CCCCC1 (stereo not drawn) | 10.4
7 | COCCCNC(=S)NC(=O)c1ccccc1 | 18.6
8 | COc1ccc(NC(=O)c2ocnc2C)cc1OC | 18.5
9 | O=C1CN(C(=O)COc2ncnc3ccccc23)c2ccccc2N1 | 1.16
10 | CCOc1ccc(C(=O)Nc2cc(S(=O)(=O)Nc3ccccc3Cl)ccc2N2CCOCC2)cc1 | 10.4
11 | NC(=O)c1ccc(C(F)(F)F)n(Cc2ccccc2Cl)c1=O | 12.9
12 | O=C(CCc1nnc(Cc2ccc3c(c2)OCO3)o1)NC(c1ccccn1)C(F)(F)F (stereo not drawn) | 15.5
13 | O=C(Cn1c(=O)[nH]c2ccccc2c1=O)Nc1cccnc1 | 13.7
14 | Cc1ccc(OCC(=O)Nc2ccc3c(c2)OCO3)cc1C | -1.57
15 | CC(=O)Oc1ccc(C(=O)Nc2cccc(NC(=O)c3ccco3)c2)cc1 | 8.02
16 | CCn1c(SCC(=O)NCCOc2ccccc2)nc2ccccc2c1=O | 10.3
17 | CC(C)(C)NC(=O)N1CCN(c2nc3ccc(Cl)cc3s2)CC1 | 5.29
18 | CN(Cc1ccccc1)C(=O)COC(=O)C1=NNC(=O)CC1 | -7.2
19 | N#CCCN(Cc1ccncc1)C(=S)NC1CC2C=CC1C2 (stereo not drawn) | 10.7
20 | CCN(CC)S(=O)(=O)c1ccc2c(c1)N(CC(=O)N1CCC(C(N)=O)CC1)C(=O)CO2 | 15.9
21 | CC(=O)CSc1ccc(-c2nc3ccccc3[nH]2)cn1 | 9.85
22 | Nc1nnnn1/N=C/c1ccco1 | -3.15
23 | CCS(=O)(=O)c1ccc2oc(Nc3cccc(OC)c3)nc2c1 | 13.6

Row | Compound | hERG current change (%, negative = inhibition) at 1uM [%]
24 | CCOC(=O)CNC(=O)CSc1ncnc2c1cnn2-c1ccc(OC)cc1 | 4.27
25 | CCCC[C@@H]1CN=C(N)N1CC(C)(C)C | 13.5
26 | CCCC(O)(CCC)C(=O)NN1CCCCC1 | -3.3
27 | CCCCC(Sc1nc(C)c(Cc2ccccc2)c(=O)[nH]1)C(=O)O (stereo not drawn) | 19.4
28 | COc1cc(/C=C(/C(=O)c2cccs2)c2nc3ccccc3[nH]2)ccc1O | 1.74
29 | [Cl-].c1ccc(Cc2cc[n+](Cc3ccccc3)cc2)cc1 | 16.1
30 | CC12CCC(C(=O)Nc3ccc(SC(F)F)cc3)(CC1=O)C2(C)C (stereo not drawn) | -12.1
31 | O=C(O)c1cn(-c2ccc(F)c(F)c2)c2c(F)c(F)c(F)c(F)c2c1=O | -5.15
32 | CN1C(=O)C(O)(CC(=O)c2ccc3c(c2)OCO3)c2ccccc21 (stereo not drawn) | 1.98
33 | O=C(CSc1nnnn1-c1ccccc1)NC(=O)Nc1ccc2c(c1)OCCO2 | 13.5
34 | CCOc1ccccc1CN1CCC(N2CCC(C(=O)NC3CC3)CC2)CC1 | 16.8
35 | Cc1cc(NC(=O)c2ccc(Br)c(S(=O)(=O)N3CCCC3)c2)no1 | 2.53
36 | CC1CCC(NC(=O)c2ccc3c(c2)OCO3)CC1 (stereo not drawn) | 17.2
37 | O=C(NCCc1ccc(C(F)(F)F)cc1)C1CCC(=O)N(CCCN2CCCC2=O)C1 (stereo not drawn) | 17.3
38 | Oc1ccc(Cl)cc1C=Nc1ccc2c3c(cccc13)CC2 | 11.9
39 | CCCCCSc1nc2c(cnn2-c2ccccc2)c(=O)[nH]1 | 9.56
40 | O=C(Cc1c[nH]c2ccccc12)Nc1nc2ccccc2[nH]1 | -5.65
41 | COc1ccc(CNc2nc3nc(C)cc(C)n3n2)cc1 | 3.05
42 | Cc1ccc(C(=O)Nc2cc3c(cc2Cl)OCCCO3)cc1 | 13.4
43 | COC(=O)c1c(O)ccc(Oc2ccccc2)c1C(=O)OC | 9.38
44 | CCOCc1c(C(=O)Nc2cc(OCC)c(N3CCOCC3)cc2OCC)oc2ccccc12 | 9.59
45 | COc1ccc2c(c1)C(=NNC(=O)c1ccccn1)c1cc(OC)ccc1-2 | 11.2
